The campaign covered roughly 110,000 compounds. About 230 (0.21%) showed an effect of 50% or more. Some of the results follow.
molecular target: DPAP1 (Plasmodium falciparum, UniProt Q8IIJ9); test: primary screen, percent inhibition; read by cleavage of a fluorogenic dipeptide substrate; higher = more effect of the substance; parameters: species or system P. falciparum D10 trophozoite lysates; single well
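Also: 30 min substrate incubation versus DMSO and 10 µM JCP410 controls.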

Chain of DPAP1 (Q8IIJ9 whole entry, looked up): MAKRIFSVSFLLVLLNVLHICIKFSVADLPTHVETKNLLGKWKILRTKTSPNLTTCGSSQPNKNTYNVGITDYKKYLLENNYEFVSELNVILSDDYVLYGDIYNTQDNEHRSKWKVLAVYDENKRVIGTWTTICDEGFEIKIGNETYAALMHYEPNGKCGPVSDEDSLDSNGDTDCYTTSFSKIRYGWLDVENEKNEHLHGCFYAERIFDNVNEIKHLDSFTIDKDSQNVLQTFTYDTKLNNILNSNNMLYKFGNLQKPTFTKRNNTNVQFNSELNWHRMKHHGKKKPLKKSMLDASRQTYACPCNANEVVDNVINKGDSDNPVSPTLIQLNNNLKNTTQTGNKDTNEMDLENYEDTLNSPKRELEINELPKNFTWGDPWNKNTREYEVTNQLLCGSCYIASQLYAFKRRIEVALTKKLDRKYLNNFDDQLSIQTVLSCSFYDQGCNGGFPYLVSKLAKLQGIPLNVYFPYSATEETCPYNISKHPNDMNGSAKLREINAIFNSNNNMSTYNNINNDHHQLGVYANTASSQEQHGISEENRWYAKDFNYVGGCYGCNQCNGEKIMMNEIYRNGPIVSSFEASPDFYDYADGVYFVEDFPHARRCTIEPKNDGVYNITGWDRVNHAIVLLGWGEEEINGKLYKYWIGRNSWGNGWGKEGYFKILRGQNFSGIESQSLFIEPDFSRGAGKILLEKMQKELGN

Row | Structure (SMILES) | % Inhibition @ 10 uM [%]
1 | c1ccc2c(c1)nc(N1CCCCCC1)c1ccccc12 | 1.84
2 | COc1nc(C)nc(NC(=O)NS(=O)(=O)N2CCOCC2)n1 | -1.22
3 | COc1ccc(C2=N/C(=C\c3sccc3C)C(=O)O2)cc1Br | -1.82
4 | O=C(COc1ccc(Cl)cc1)N(Cc1ccccc1F)C1CCS(=O)(=O)C1 (stereo not drawn) | -1.35
5 | O=C(O)c1ccc2[nH]c(-c3cccc(-c4nc5cc(C(=O)O)ccc5[nH]4)c3)nc2c1 | 7
6 | O=C(CCCSc1nc2ccccc2s1)N1CCN(c2ncccn2)CC1 | 4.61
7 | CCCCNC(=O)c1cc2c(s1)-c1ccccc1SC2 | 4.41
8 | C=CCN1C(=O)/C(=C\NC(C)CC)C(=O)NC1=S (stereo not drawn) | -7.88
9 | CC(C)COc1cc(O)nc(S)n1 | -1.69
10 | O=C(NCc1cccnc1)c1nnc(-c2cccnc2)o1 | 4.47
11 | C/C(=C\c1ccco1)C(=O)c1c(C)cc(C)nc1O | 0.135
12 | Cc1ccc2nc(N(CCN(C)C)C(=O)c3ccc(Br)s3)sc2c1 | -8.86
13 | CC1=C(C(=O)Nc2ccc(F)cc2)C(c2ccccc2Cl)C2=C(O)CCCC2=N1 (stereo not drawn) | 2.38
14 | CCc1c(C)sc(NC(=O)c2cccs2)c1C(N)=O | 1.27
15 | COC(=O)c1nc2nc(-c3cccs3)cc(C(F)(F)F)n2n1 | 1.4
16 | Oc1c(Cl)cc(Cl)cc1CN1CCc2ccccc2C1 | -1.5
17 | CCOc1cccc(/C=C2/SC(=O)N(CC(=O)N3CCN(c4ccccc4)CC3)C2=O)c1O | 1.86
18 | CCN1C(=O)C(CC(=O)Nc2ccccc2)S/C1=N/c1ccc(S(N)(=O)=O)cc1 (stereo not drawn) | -5.83
19 | O=C(Nc1ccc(Cl)cc1)NC(CC(=O)c1ccc([N+](=O)[O-])cc1)C(Cl)(Cl)Cl (stereo not drawn) | -5.5
20 | CC(C)Cn1c(CN2CCCCC2)nc2c1c(=O)n(C)c(=O)n2C | 0.317
21 | Cc1cccc(NC(=O)CSc2nc(C)cc(C)c2C#N)n1 | 5.66
22 | Cc1ccc(CCSc2ccc(C(C)C)cc2)cn1 | 0.266
23 | CCOc1cc2c(cc1OCC)C(C(=O)O)C(c1ccc(OC)c(O)c1)N(C)C2=O (stereo not drawn) | -4.23
24 | Brc1ccc(-c2csc(N3N=C(c4ccccc4)CC3c3ccccc3)n2)cc1 (stereo not drawn) | -2
25 | CS(=O)(=O)N(CC(=O)N1CCN(c2cccc(Cl)c2)CC1)c1cccc(Cl)c1Cl | 1.72
26 | COc1cccc(-c2nc(O)c3c(n2)Oc2c(C)cccc2C3)c1OC | 6.98

Row | Structure (SMILES) | % Inhibition @ 10 uM [%]
27 | Cn1c(=O)c2c(nc(SCC(=O)Nc3ccccc3)n2Cc2ccccc2)n(C)c1=O | -2.88
28 | O=C(NCCC1=CCCCC1)c1cnn2c(C(F)(F)F)cc(-c3cccs3)nc12 | 7.37
29 | CCN(C(=O)Nc1cccc(Cl)c1)c1ccccc1 | 1.96
30 | CCc1ccc(C2N(c3nccs3)C(=O)C3CCCN32)cc1 (stereo not drawn) | 1.23
31 | CCn1c(C(=O)NCCCN2CCOCC2)cc2sc(Cl)cc21 | -6.68
32 | Cc1cccn2c(=O)c3cc(C(=O)NCc4ccco4)n(C)c3nc12 | 0.331
33 | Cc1ccc2oc(-c3ccc(Cl)c(Cl)c3)c(O)c(=O)c2c1 | -1.69
34 | CCOC(=O)c1ccc2[nH]c3c(c2c1)CCCC3NC=O (stereo not drawn) | 2.7
35 | CC(=O)NC(Cc1ccccc1)Cc1ccccc1 | 0.968
36 | Cn1c(=O)c(C#N)cn(Cc2ccc(Cl)c(Cl)c2)c1=O | -6.69
37 | CC(=O)N1c2ccccc2N=C2CC(C)(C)CC(O)=C2C1c1ccc(C(F)(F)F)cc1 (stereo not drawn) | 3.72
38 | CC(C)(C)S(=O)(=O)c1ccncc1 | 4.93
39 | COc1ccc(OCc2ccc(C3C(C#N)=C(N)OC4=C3C(=O)CCC4)cc2OC)cc1 (stereo not drawn) | -0.318
40 | CC(=O)NC1(C2CCCCC2=O)CCCCC1 (stereo not drawn) | -4.96
41 | CC(CN1CCN(c2ccccc2F)CC1)c1ccccc1 (stereo not drawn) | -5.11
42 | CCN(CC)CCOc1cccc(Cl)c1 | 1.29
43 | Cc1ccc(CNC(=O)C2CCC(CNS(=O)(=O)c3csc(C(N)=O)c3)CC2)cc1 (stereo not drawn) | -1.59
44 | CC(C)C[C@H](NC(=O)OCc1ccccc1)C(=O)N[C@H](C#N)CCC(=O)OCc1ccccc1 | 11.1
45 | CCOCC(=O)Nc1ccc2c(c1)c1ccccc1n2CC | -4.15
46 | CCOC(=O)c1c(C)[nH]c(C)c1S(=O)(=O)NCC(=O)N1CCN(CC)CC1 | -8.46
47 | Nc1nc(S)nc2sc3c(c12)CCN(Cc1ccccc1)C3 | 54.1
48 | CC(CNC(=O)c1csc2c1CCCC2)c1ccccc1 (stereo not drawn) | 0.277
49 | Cc1[nH]c2ccccc2c1Cc1nnc(SCC(N)=O)o1 | 4.08
50 | CCOC(=O)c1cnc(SC)nc1-c1ccccc1 | -2.73
51 | CC(C)NC(=O)NS(=O)(=O)c1cnccc1NC1CC2CCC1C2 (stereo not drawn) | -4.12
